Source: ChEMBL document CHEMBL4888484, “Replenishing the malaria drug discovery pipeline: Screening and hit evaluation of the MMV Hit Generation Library 1 (HGL1) against asexual blood stage Plasmodium falciparum ,using a nano luciferase reporter read-out” (2022)
Screen size: about 150,000 compounds; about 540 (0.36%) showed an effect of 50% or more. Some of the results follow.

Test system: Plasmodium falciparum
Test: Primary screen in NF54 nanoGlo assay, in single point, at 2uM, 72h; a lower Z score goes with more inhibition
Type: functional, Erythrocyte
Details: timepoint 72 hour

Going from `O=C1NCC2(CCN(C(=O)C[C@H]3CCOC3)CC2)O1` to `CC[C@@H](C(=O)Nc1nccs1)N1CCC2(CC1)CNC(=O)O2`, the “% Inhibition” value rises from -15% to -10%.

Compared with `Cc1n[nH]c2c1CCCN2Cc1ncc(C(C)(C)C)o1`, `C[C@@H]1CCC[C@H](C)N1Cc1nc(-c2cccnc2)no1` is lower in “% Inhibition” value: -3% for the first, -13% for the second.

Compared with `Cc1cc(N)nc(C)c1-c1ccc(C(=O)N[C@@H](C)Cn2cncn2)cc1`, `COc1ccc(C(=O)Nc2cccc(-c3nnc4n3CCCC4)c2)cc1` is lower in “% Inhibition” value: -13% for the first, -14% for the second.

`Cn1cc(CC2CN(c3ccc4nccnc4n3)C2)cn1` and `CN(C)c1cnc(C(=O)N2CCCC[C@H]2c2nc3ccccc3o2)cn1` are the same in “% Inhibition” value: -9% for the first, -9% for the second.

Compared with `C=CCN(C(=O)c1ccncc1)c1nc(-c2ccc(Cl)c(Cl)c2)cs1`, `O=C(c1cc(-c2ccccc2)n[nH]1)N1Cc2cccnc2C1` is lower in “% Inhibition” value: -2% for the first, -11% for the second.

Compared with `CC[C@@H](c1ccccn1)N(C)C(=O)c1nccn1C`, `CC[C@H](C)c1cc(-c2nc(COCc3ccccc3)no2)on1` is lower in “% Inhibition” value: -10% for the first, -11% for the second.

First: CC(NC(=O)NCCC1CCCCO1)c1noc(-c2ccccc2)n1 (centres undefined)
Second: CCNC(=O)C[C@H]1CCCCN1C(=O)c1ccc(F)c2occc12
The “% Inhibition” value of the first is lower: -4% for the first, 0% for the second.

Compared with `Cc1nn(-c2ccc3nncn3n2)c(C)c1CCC(=O)N1CCC(C)CC1`, `COc1cccc(C(=O)N/C(=N/c2cc(C)ccc2C)N2CCN(CCC#N)CC2)c1` is higher in “% Inhibition” value: -7% for the first, -1% for the second.

First: CN(C(=O)c1nnc(C(C)(C)C)s1)C1CC1
Second: CC(C)(C)N1C[C@@H](NC(=O)COc2ccsc2)CC1=O
The “% Inhibition” value of the first is higher: 2% for the first, -11% for the second.

Compared with `Cc1ccc(-n2nnnc2-c2ccc(-c3nnnn3-c3ccc(C)cc3)cc2)cc1`, `Cc1ccc(-c2noc3c(N(c4ccc(C(C)C)cc4)c4nc(C)nc5c(-c6ccc(C)cc6)noc45)nc(C)nc23)cc1` is lower in “% Inhibition” value: -6% for the first, -12% for the second.

Going from `N#Cc1ncn(CC(=O)NCCC2=CCCCC2)n1` to `Cc1nc2c(C(=O)NCC3(S(C)(=O)=O)CCCC3)ccnc2[nH]1`, the “% Inhibition” value rises from -2% to 1%.

Going from `CC(C)(O)c1nc2ccccc2cc1N` [ACLOPROXALAP] to `Cc1cccc(NC(=O)N2CCc3[nH]c(-c4ccccc4)nc3C2)c1`, the “% Inhibition” value falls from -2% to -12%.

First: CN(Cc1nccs1)Cc1noc2c1CCCC2
Second: COc1ccccc1-c1noc(CN2CCC(C(=O)N3CCCCCC3)CC2)n1
The “% Inhibition” value of the first is lower: -22% for the first, 5% for the second.

`O=C(Nc1c(C(=O)N2CCCCCC2)oc2ccccc12)c1ccccc1F` and `Cc1ccc2nccc(C(=O)N3CCC[C@H](C(=O)c4cccc5ccccc45)C3)c2c1` are the same in “% Inhibition” value: 5% for the first, 5% for the second.

Going from `O=C(NCCCNC(=O)c1cccc2nn[nH]c12)c1cccc(F)c1` to `O=C(c1ccco1)N1CC(OCc2cccc(F)c2)C1`, the “% Inhibition” value falls from -5% to -11%.

Going from `O=C(N1CCC(Oc2ccc(Cl)cn2)CC1)C1(c2ccccc2)CCOCC1` to `Cc1cccc(N2CCN(C(=O)[C@@H]3Cc4ccccc4O3)CC2)c1`, the “% Inhibition” value rises from -23% to -9%.

Going from `CC[C@H]1CCCN(C(=O)COCC(F)(F)F)C1` to `CCC[C@]1(CO)CCCN1Cc1ccco1`, the “% Inhibition” value rises from -8% to 5%.

Compared with `CC(CNC(=O)N1CCOCCC1C)c1ccc(F)c(F)c1` (centres undefined), `CC(C)C1=NN(Cc2ccc(F)cc2F)C(=O)C1` is lower in “% Inhibition” value: -10% for the first, -11% for the second.

Going from `Cc1nnc(CCNc2ncc(Cl)cc2Br)n1C` to `Cc1nn(-c2ncnc3nc[nH]c23)c2c1[C@@]1(CC(=O)N2)C(=O)N(CCc2ccc3c(c2)CCO3)c2ccccc21`, the “% Inhibition” value rises from -5% to 11%.

First: CC1CCN(C(=O)Nc2cccnc2)C(c2ccco2)C1 (centres undefined)
Second: Cc1cc(C(=O)N2CCC3(CC2)CC(=O)N(C/C=C/c2ccccc2)C3)no1
The “% Inhibition” value of the first is lower: -11% for the first, -9% for the second.

First: O=C(O)c1ccc(S(=O)(=O)N2CCCCCCC2)cc1
Second: Cc1nc(C)c(C)c(N2CCN(C[C@H]3CCCS3(=O)=O)CC2)n1
The “% Inhibition” value of the first is lower: 1% for the first, 5% for the second.

First: O=C1NCC2(CCN(C(=O)C[C@H]3CCOC3)CC2)O1
Second: CC[C@@H](C(=O)Nc1nccs1)N1CCC2(CC1)CNC(=O)O2
The Z score of the first is higher: 2.38 for the first, 1.74 for the second.

Going from `Cc1n[nH]c2c1CCCN2Cc1ncc(C(C)(C)C)o1` to `C[C@@H]1CCC[C@H](C)N1Cc1nc(-c2cccnc2)no1`, the Z score rises from 0.41 to 2.57.

Going from `Cc1cc(N)nc(C)c1-c1ccc(C(=O)N[C@@H](C)Cn2cncn2)cc1` to `COc1ccc(C(=O)Nc2cccc(-c3nnc4n3CCCC4)c2)cc1`, the Z score falls from 1.32 to 1.29.

Going from `Cn1cc(CC2CN(c3ccc4nccnc4n3)C2)cn1` to `CN(C)c1cnc(C(=O)N2CCCC[C@H]2c2nc3ccccc3o2)cn1`, the Z score falls from 0.98 to 0.88.

Going from `C=CCN(C(=O)c1ccncc1)c1nc(-c2ccc(Cl)c(Cl)c2)cs1` to `O=C(c1cc(-c2ccccc2)n[nH]1)N1Cc2cccnc2C1`, the Z score rises from 0.26 to 1.27.

Compared with `CC[C@@H](c1ccccn1)N(C)C(=O)c1nccn1C`, `CC[C@H](C)c1cc(-c2nc(COCc3ccccc3)no2)on1` is higher in Z score: 1.91 for the first, 2.11 for the second.

First: CC(NC(=O)NCCC1CCCCO1)c1noc(-c2ccccc2)n1 (centres undefined)
Second: CCNC(=O)C[C@H]1CCCCN1C(=O)c1ccc(F)c2occc12
The Z score of the first is higher: 0.49 for the first, -0.04 for the second.

Compared with `Cc1nn(-c2ccc3nncn3n2)c(C)c1CCC(=O)N1CCC(C)CC1`, `COc1cccc(C(=O)N/C(=N/c2cc(C)ccc2C)N2CCN(CCC#N)CC2)c1` is lower in Z score: 0.9 for the first, 0.14 for the second.

Compared with `CN(C(=O)c1nnc(C(C)(C)C)s1)C1CC1`, `CC(C)(C)N1C[C@@H](NC(=O)COc2ccsc2)CC1=O` is higher in Z score: -0.4 for the first, 2.02 for the second.

Compared with `Cc1ccc(-n2nnnc2-c2ccc(-c3nnnn3-c3ccc(C)cc3)cc2)cc1`, `Cc1ccc(-c2noc3c(N(c4ccc(C(C)C)cc4)c4nc(C)nc5c(-c6ccc(C)cc6)noc45)nc(C)nc23)cc1` is higher in Z score: 0.85 for the first, 1.92 for the second.

Going from `N#Cc1ncn(CC(=O)NCCC2=CCCCC2)n1` to `Cc1nc2c(C(=O)NCC3(S(C)(=O)=O)CCCC3)ccnc2[nH]1`, the Z score falls from 0.32 to -0.24.

Going from `CC(C)(O)c1nc2ccccc2cc1N` [ACLOPROXALAP] to `Cc1cccc(NC(=O)N2CCc3[nH]c(-c4ccccc4)nc3C2)c1`, the Z score rises from 0.23 to 1.74.

Going from `CN(Cc1nccs1)Cc1noc2c1CCCC2` to `COc1ccccc1-c1noc(CN2CCC(C(=O)N3CCCCCC3)CC2)n1`, the Z score falls from 2.37 to -0.78.

Going from `O=C(Nc1c(C(=O)N2CCCCCC2)oc2ccccc12)c1ccccc1F` to `Cc1ccc2nccc(C(=O)N3CCC[C@H](C(=O)c4cccc5ccccc45)C3)c2c1`, the Z score falls from -0.54 to -0.68.

First: O=C(NCCCNC(=O)c1cccc2nn[nH]c12)c1cccc(F)c1
Second: O=C(c1ccco1)N1CC(OCc2cccc(F)c2)C1
The Z score of the first is lower: 0.74 for the first, 1.82 for the second.

Going from `O=C(N1CCC(Oc2ccc(Cl)cn2)CC1)C1(c2ccccc2)CCOCC1` to `Cc1cccc(N2CCN(C(=O)[C@@H]3Cc4ccccc4O3)CC2)c1`, the Z score falls from 4.38 to 1.47.

Going from `CC[C@H]1CCCN(C(=O)COCC(F)(F)F)C1` to `CCC[C@]1(CO)CCCN1Cc1ccco1`, the Z score falls from 0.77 to -0.66.

Compared with `CC(CNC(=O)N1CCOCCC1C)c1ccc(F)c(F)c1` (centres undefined), `CC(C)C1=NN(Cc2ccc(F)cc2F)C(=O)C1` is lower in Z score: 1.35 for the first, 1.08 for the second.

First: Cc1nnc(CCNc2ncc(Cl)cc2Br)n1C
Second: Cc1nn(-c2ncnc3nc[nH]c23)c2c1[C@@]1(CC(=O)N2)C(=O)N(CCc2ccc3c(c2)CCO3)c2ccccc21
The Z score of the first is higher: 0.51 for the first, -1.37 for the second.

Compared with `CC1CCN(C(=O)Nc2cccnc2)C(c2ccco2)C1` (centres undefined), `Cc1cc(C(=O)N2CCC3(CC2)CC(=O)N(C/C=C/c2ccccc2)C3)no1` is lower in Z score: 2.13 for the first, 1.24 for the second.

Going from `O=C(O)c1ccc(S(=O)(=O)N2CCCCCCC2)cc1` to `Cc1nc(C)c(C)c(N2CCN(C[C@H]3CCCS3(=O)=O)CC2)n1`, the Z score falls from -0.13 to -1.02.
